In doi:10.1101/2020.05.04.076190 (bioRxiv, 2020):

Molecular target: the molecule itself
Test: native gel or EMSA

B1: Max bHLH-LZ peptide (p21 isoform) (domain or fragment)
chain: not shown
binding result: binds
